The other results are listed elsewhere or left out. The energies were worked out here from pooled read counts, against the library average; single values are noisy.
biological target: T1, Pho4 (S. cerevisiae) (UniProt P07270); assay: relative binding free energy (BET-seq); higher = weaker binding; conditions: reference: library average
T1 sequence: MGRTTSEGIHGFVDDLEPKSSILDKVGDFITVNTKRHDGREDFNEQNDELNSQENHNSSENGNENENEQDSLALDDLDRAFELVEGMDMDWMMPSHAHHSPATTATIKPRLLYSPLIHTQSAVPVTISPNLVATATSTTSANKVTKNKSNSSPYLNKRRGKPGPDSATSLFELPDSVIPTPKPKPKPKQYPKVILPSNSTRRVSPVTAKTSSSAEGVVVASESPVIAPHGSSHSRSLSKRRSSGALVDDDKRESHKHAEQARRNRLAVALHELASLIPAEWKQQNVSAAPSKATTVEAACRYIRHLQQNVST

| Sequence | relative binding free energy [kcal/mol] |
| --- | --- |
| TCGGTCACGTGGGACG | 0.04 |
| GTGTGCACGTGTGGGG | 0.07 |
| AAGGTCACGTGGGTCG | -0.02 |
| AAGGGCACGTGGGGAT | -0.17 |
| TATGGCACGTGCTAGG | -0.1 |
| TGAGGCACGTGAGGCG | -0.01 |
| GTTCGCACGTGCGTGT | 0.13 |
| GGGGCCACGTGCGGCT | -0.11 |
| TAGGGCACGTGCGGCT | -0.18 |
| GGGTACACGTGAGGGT | 0.39 |
| GCGTGCACGTGGGTGC | -0.15 |
| AGGGGCACGTGAAGTT | 0.17 |
| GATTACACGTGTTTAT | 0.23 |
| GTGGACACGTGTGGCT | 0.13 |
| GCTGGCACGTGGTTTG | -0.05 |
| ACGGGCACGTGGTCTG | -0.16 |
| TGGATCACGTGGAGGG | 0.14 |
| TAGTTCACGTGGCTGC | 0.33 |
| ATATTCACGTGCTTGG | 0.36 |
| ATAAACACGTGGTTTT | -0.12 |
| TCAAGCACGTGTGTTG | -0.01 |

| Sequence | relative binding free energy [kcal/mol] |
| --- | --- |
| ATTGACACGTGCTGGG | -0.11 |
| GGAAGCACGTGTTGGT | -0.13 |
| GGAAGCACGTGTTCGT | 0.02 |
| ATATACACGTGAGTGA | 0.18 |
| AGCGACACGTGAGGTG | 0.15 |
| GTGATCACGTGCGTCT | 0.08 |
| TTGGTCACGTGTGTAT | 0.12 |
| GTGTACACGTGTATGT | 0.08 |
| ATACTCACGTGTGATT | 0.2 |
| AAGGGCACGTGGTGAT | -0.16 |
| TAGCTCACGTGAGTGG | 0.23 |
| CTTCTCACGTGGGGTG | -0.06 |
| TGGTACACGTGGCGGG | 0 |
| CTTAGCACGTGCTGGT | -0.05 |
| GTGGGCACGTGCTTAG | -0.08 |
| CTGGTCACGTGCATGG | 0.06 |
| TATGTCACGTGGTTTA | 0.01 |
| GTGGGCACGTGTTATA | -0.06 |
| ATTTCCACGTGGTTAT | -0.03 |
| TTGGGCACGTGGTCGT | -0.14 |
| ATTGTCACGTGTGAGA | 0.22 |

| Sequence | relative binding free energy [kcal/mol] |
| --- | --- |
| ATAGCCACGTGTAGGG | -0.06 |
| GAGGTCACGTGTGGGG | 0.18 |
| GTATACACGTGATAAT | 0.27 |
| AGCGCCACGTGTGGGG | -0.12 |
| GGGGTCACGTGGGATA | 0.05 |
| ATGTGCACGTGCAGTT | 0 |
| TTATCCACGTGTTTAT | -0.02 |
| GGGATCACGTGTGGCG | 0.29 |
| GAGGACACGTGGAGGA | 0.06 |
| GGACGCACGTGTTTGT | -0.07 |
| GGTGGCACGTGGGTGA | -0.08 |
| CGGGACACGTGGCGAG | -0.04 |
| ATGGCCACGTGTGGGG | -0.03 |
| TAGTTCACGTGGCAAG | 0.09 |
| TTCCGCACGTGTGTGT | 0.02 |
| CGTCACACGTGGTGGT | -0.02 |
| ATGTACACGTGGAGGG | -0.06 |
| GAGGCCACGTGGGGCT | -0.27 |
| AATGTCACGTGTGGGC | 0.12 |
| AGGTTCACGTGAATGT | 0.46 |
| AAGGGCACGTGAGTAT | 0.1 |

Reference: the BET-seq Pho4 binding data (Le et al. 2018)
